Data on 42 sequences can be found in PMC7819943, “Rice protein-binding microarrays: a tool to detect cis-acting elements near promoter regions in rice”.

Some of the results follow.

The target in this experiment is T1, OsWOX13 (Oryza sativa, UniProt Q5QMM3 1-267).
T1 sequence: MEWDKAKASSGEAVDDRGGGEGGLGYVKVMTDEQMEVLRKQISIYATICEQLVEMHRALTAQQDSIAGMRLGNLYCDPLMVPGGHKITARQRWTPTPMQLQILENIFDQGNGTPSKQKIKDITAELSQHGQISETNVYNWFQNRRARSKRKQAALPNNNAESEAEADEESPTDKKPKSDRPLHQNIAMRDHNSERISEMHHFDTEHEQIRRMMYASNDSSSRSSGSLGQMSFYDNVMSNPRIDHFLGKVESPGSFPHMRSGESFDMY
In words: protein-binding microarray (RPBM); PBS, 2% BSA, 51.3 ng/ul salmon testes DNA, 50 uM zinc acetate, 200 nM TF, 25 C, 1 h; high values mean tight binding. Particulars: protein: recombinant; tags: N-terminal polyhistidine and DsRed monomer fusion (pET32a); label: CyDye5-dUTP incorporated in the synthesized complementary strand; 3' TTTTT single-stranded linker to array surface; dsDNA, one strand shown. A digest of the protocol:
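Binding signal is defined as the fluorescence intensity of each feature in arbitrary units, read on an Axon 4000B scanner. Transcription factors with N-terminal polyhistidine and DsRed fusions came from E. coli BL21-CodonPlus and were purified on Ni–NTA. They were incubated at 200 nM for 1 h at 25 °C on a custom Agilent array that had been made double-stranded with Cy5-dUTP, with 50 µM zinc acetate present, and the array was washed.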
Take “ATTAATTGCTTTTCTTTCTTTAATTTGGACCAGGCAGTGACGGAGTCACCTAGTGCAG”: the binding signal is 28600 fluorescence intensity (a.u.).

As for “TAATATTTAATTTCTATCAACATCTGACTACTTAATATTGCGGAGTCACCTAGTGCAG”, the binding signal is 7790 fluorescence intensity (a.u.).

Take “CATGATTTCTTAAAGTGGGCCATTAATAAATACATCATCTCGGAGTCACCTAGTGCAG”: the binding signal was 14300 fluorescence intensity (a.u.).

On to “TTTAAAATAATTAATATCTAATTAATTATGCGTTAATGGCCGGAGTCACCTAGTGCAG”, for which the binding signal was 48900 fluorescence intensity (a.u.).

Take “TATATATATATATATATATATGTATGTATGTATATATATACGGAGTCACCTAGTGCAG”: the binding signal was 16600 fluorescence intensity (a.u.).

As to “CTTATGCTAACTGAACATTAAATTAACTGGAGCTAAGCTTCGGAGTCACCTAGTGCAG”, the binding signal is 9860 fluorescence intensity (a.u.).

With “TAAAGTTAATTACACACATCACATTGCCAATATATATGGTCGGAGTCACCTAGTGCAG”, the binding signal is 25500 fluorescence intensity (a.u.).

For “ATAAATTTATAGGTAAAACTTTTATATAGATGTTCTTGGTCGGAGTCACCTAGTGCAG”, the binding signal was 15300 fluorescence intensity (a.u.).

Take “TATTGATTAAATACCTGATCTGATTCTGCATATGATTCAACGGAGTCACCTAGTGCAG”: the binding signal was 10200 fluorescence intensity (a.u.).

On to “CTTAGTAATTCAGATAGTTAAATTAATTCCCAGCGTTGAGCGGAGTCACCTAGTGCAG”, for which the binding signal was 3900 fluorescence intensity (a.u.).

Consider “CATCAATTTGTTTCGCTATCCTCCTCGCTCCACCGATTAGCGGAGTCACCTAGTGCAG”, for which the binding signal was 5080 fluorescence intensity (a.u.).

For “TACAAATAAATTTTGTTGAAATTCAGGAATCGGTCGTGTCCGGAGTCACCTAGTGCAG”, the binding signal was 3990 fluorescence intensity (a.u.).

As for “GGATTTGATTGGATAAGCCGCTCGTAAGGACACCGTGCCTCGGAGTCACCTAGTGCAG”, the binding signal is 52300 fluorescence intensity (a.u.).

For “TTTTCCTGATCAAGTCAATCACACAGCTATCTTGCTCTTCCGGAGTCACCTAGTGCAG”, the binding signal was 9440 fluorescence intensity (a.u.).

For “TGGATTAATTAGTAGCACAACTATGGATGCACAACCTTAGCGGAGTCACCTAGTGCAG”, the binding signal is 16500 fluorescence intensity (a.u.).

Turning to “CAATAGATAGCCTAAATTTAAATTTGTTTGAACCTGTGCCCGGAGTCACCTAGTGCAG”, the binding signal is 23900 fluorescence intensity (a.u.).

For “ACAAATTGGGTTAATGGGCCGGATGATTCTAAATGGGCCCCGGAGTCACCTAGTGCAG”, the binding signal is 23800 fluorescence intensity (a.u.).

For the sequence “CCCTGATTAGAGCTCTTTGCAAACTGTGTTTTGTATTAGCCGGAGTCACCTAGTGCAG”, the binding signal is 41600 fluorescence intensity (a.u.).

“TACCTTTTAATTTTCCCCATCCTTATCCTATTCCTATCTCCGGAGTCACCTAGTGCAG”: the binding signal was 3240 fluorescence intensity (a.u.).

For the sequence “CGCCACTGACAGGTGGTCCCAGGGCCGTGATGGACCCACCCGGAGTCACCTAGTGCAG”, the binding signal was 3500 fluorescence intensity (a.u.).

Take “CCTGAGACATCCAATCATAATCATCATGTGCTAGACTGTACGGAGTCACCTAGTGCAG”: the binding signal is 16800 fluorescence intensity (a.u.).

Regarding “TCTAATTTCTTCCCTTGCAGATTGATCTTGTTAGTGAGCCCGGAGTCACCTAGTGCAG”, the binding signal is 20700 fluorescence intensity (a.u.).

“ATTTGATCAAATCTTCCTATGTTCCTCCTGTATTCCTTTACGGAGTCACCTAGTGCAG”: the binding signal is 6780 fluorescence intensity (a.u.).

For “CCAAATTTGGACTCCTTCCAAATTTGACTCCACATCCCATCGGAGTCACCTAGTGCAG”, the binding signal is 4030 fluorescence intensity (a.u.).

In the case of “TTAGATCAATTGGTAAAATGATTGTTATGTGCATAGTAGCCGGAGTCACCTAGTGCAG”, the binding signal was 25900 fluorescence intensity (a.u.).

Consider “GCCTCCTCATTATTAATATCTGTACTCCATATTCTACTACCGGAGTCACCTAGTGCAG”, for which the binding signal is 3540 fluorescence intensity (a.u.).

“CTGCTGCTTGATTATTTGGGTTCAACTGGCAAGAACTATGCGGAGTCACCTAGTGCAG”: the binding signal is 8890 fluorescence intensity (a.u.).

With “ACATAATTTGCTACCACGTTTGTGACCGCTAATCTTCCCTCGGAGTCACCTAGTGCAG”, the binding signal was 23600 fluorescence intensity (a.u.).

For the sequence “GCCACATTGTGATTTGTTTTAAAAGAACAGATGGAATAGTCGGAGTCACCTAGTGCAG”, the binding signal was 8400 fluorescence intensity (a.u.).

As for “TAGGGCTGATTTGGTTTGATGCACTACCAAACCATTGGTACGGAGTCACCTAGTGCAG”, the binding signal was 5460 fluorescence intensity (a.u.).

Consider “GTAAATTTCATAAAATCCCACGTATTATGATTCAAATTGCCGGAGTCACCTAGTGCAG”, for which the binding signal is 3430 fluorescence intensity (a.u.).

Turning to “TGGTAAATTGTAAAATGATTATTGTTGCTGATCTCTAACTCGGAGTCACCTAGTGCAG”, the binding signal is 35300 fluorescence intensity (a.u.).

Turning to “GTATGATGGACCAGCAAATCTATATATCGATCATCTGCAGCGGAGTCACCTAGTGCAG”, the binding signal was 7870 fluorescence intensity (a.u.).

For “GAATCAATTGAAATTTGAATTAAGACGGGGTTTTATGAAACGGAGTCACCTAGTGCAG”, the binding signal is 8460 fluorescence intensity (a.u.).

Consider “AGCTGTTTAATTATTTACTCAGACTCACGGTCACAGTCACCGGAGTCACCTAGTGCAG”, for which the binding signal was 12500 fluorescence intensity (a.u.).

Take “CATTAATTTGTTGCACTTTAGACCACTTCAAACCACTTTCCGGAGTCACCTAGTGCAG”: the binding signal was 21900 fluorescence intensity (a.u.).

As to “TAGATTATTATTATTATTATTGCAATGTCACAACTGAAGACGGAGTCACCTAGTGCAG”, the binding signal was 5320 fluorescence intensity (a.u.).

Consider “GCACGAAACATAGTAATTAATTAGCTATAAGTAGTAGAAGCGGAGTCACCTAGTGCAG”, for which the binding signal is 10700 fluorescence intensity (a.u.).

Take “ATAGGTGGTTGATTTATTTTGCGTAGGAGAGAGTACGTTGCGGAGTCACCTAGTGCAG”: the binding signal is 3800 fluorescence intensity (a.u.).

In the case of “ACTGAATTAACGTGTAACCGCACCAACCCTGGAGGACTACCGGAGTCACCTAGTGCAG”, the binding signal is 3580 fluorescence intensity (a.u.).

For “CACTGTAATTAATTATTTGTTTAGCCTATATTCAATACTTCGGAGTCACCTAGTGCAG”, the binding signal is 46700 fluorescence intensity (a.u.).

Regarding “GATAATTAAACTAATCTCCAGATTATTTCTCATCCAAGCCCGGAGTCACCTAGTGCAG”, the binding signal was 34700 fluorescence intensity (a.u.).
